Experimental data published in PubChem BioAssay (NCATS).
Values joined by “and” are separate entries in the source; they are usually repeats but may differ in a detail not shown here. Identical values can stand only once. Inconclusive means that the source gave no clear call. Such entries were picked first, then a sample of the others. Potencies beside an inconclusive call are fits to weak or partial responses and may not hold up. Active and inactive are the calls of the source. Calls follow the shape of the dose curve; as a rule, active = well fitted curve in the direction sought with a large enough effect; inconclusive = small, poorly fitted or top-dose-only effect, or another doubt; inactive = no such curve, though single readings can be large; an effect the other way counts as inactive or inconclusive.

What was measured:
[1] = qHTS of pediatric cancer cell lines to identify multiple opportunities for drug repurposing: Primary screen for OHS-50 cells (AID 1347103); also: nearly all actives have a fitted effect of over 40% in size;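 as to activity change, negative = cytotoxic: plate controls were DMSO neutral control for no effect and bortezomib positive control for full effect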
Procedure, shortened: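 Cells (500-1,000/well) rested 5 h, then received compounds for 48 h; metabolically active cells were measured by CellTiter-Glo luminescence. Final concentrations spanned up to 46 µM (MIPE, 11-point) or 0.59 nM-46 µM (NPC, 8-point) in primary screens, 11-point in follow-ups.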

[2] = qHTS of pediatric cancer cell lines to identify multiple opportunities for drug repurposing: Primary screen for RD cells (AID 1347104); also: nearly all actives have a fitted effect of over 55% in size;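 as to activity change, negative = cytotoxic: plate controls were DMSO for no effect and bortezomib for full effect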
Procedure, shortened: (§1)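 Readout: CellTiter-Glo luminescence, 48 h treatment. Controls DMSO (neutral) and bortezomib 2.3 µM final (positive). Potency and efficacy taken from primary-screen concentration-response curves.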

[3] = qHTS of pediatric cancer cell lines to identify multiple opportunities for drug repurposing: Primary screen for MG 63 (6-TG R) cells (AID 1347105); conditions: MG 63 (6-TG R) viability, CellTiter-Glo, 48 h; activity change, negative = cytotoxic: at 46 µM (top of the series) unless noted; also: nearly all actives have a fitted effect of over 50% in size; as to activity change, negative = cytotoxic: % is scaled to controls: 0 for no effect and ±100 for the full control effect
Procedure, shortened: as §1

[4] = qHTS of pediatric cancer cell lines to identify multiple opportunities for drug repurposing: Primary screen for control Hh wild type fibroblast cells (AID 1347106); also: nearly all actives have a fitted effect of over 55% in size;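 as to activity change, negative = cytotoxic: % is scaled to controls: 0 for no effect and ±100 for the full control effect; a drop in luminescence marks cytotoxicity and a rise apparent proliferation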
Procedure, shortened: (§2)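 Viability after 48 h compound treatment at 37C, 500-1,000 cells/well, read as ATP luminescence with CellTiter-Glo. Primary screens used 11-point (MIPE, 0.78 nM-46 µM) or 8-point (NPC, 0.59 nM-46 µM) final concentrations; follow-up screens used 11-point dilutions.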

[5] = qHTS of pediatric cancer cell lines to identify multiple opportunities for drug repurposing: Primary screen for Rh30 cells (AID 1347107); also: nearly all actives have a fitted effect of over 75% in size; as to activity change, negative = cytotoxic: % is scaled to controls: 0 for no effect and ±100 for the full control effect
Procedure, shortened: as §2

[6] = qHTS of pediatric cancer cell lines to identify multiple opportunities for drug repurposing: Primary screen for Rh41 cells (AID 1347108); also: nearly all actives have a fitted effect of over 70% in size;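 as to activity change, negative = cytotoxic: luminescence drop marks cytotoxic hits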
Procedure, shortened: as §1

[7] = qHTS of pediatric cancer cell lines to identify multiple opportunities for drug repurposing: Confirmatory screen for A673 cells (AID 1347110); also: nearly all actives have a fitted effect of over 65% in size
Procedure, shortened: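 Cells plated at 500-1,000/well were treated five hours later with multi-point dilutions up to 46 µM final. After two days, CellTiter-Glo was added and luminescence read.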

[8] = qHTS of pediatric cancer cell lines to identify multiple opportunities for drug repurposing: Confirmatory screen for SK-N-MC cells (AID 1347111);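 also: cells exposed to compound for 48 h before the readout; nearly all actives have a fitted effect of over 70% in size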;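 as to activity change, negative = cytotoxic: plate controls were DMSO for no effect and bortezomib for full effect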
Procedure, shortened: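 SK-N-MC cells at 500-1,000 cells/well in growth media were pre-incubated 5 h, then exposed to compounds at 11-point dilutions for 48 h at 37 degrees C, 5% CO2. Viability was read as CellTiter-Glo luminescence.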

[9] = qHTS of pediatric cancer cell lines to identify multiple opportunities for drug repurposing: Confirmatory screen for NB1643 cells (AID 1347109); also: nearly all actives have a fitted effect of over 45% in size
Procedure, shortened: as §2
Potency is read from the fitted curve at half-maximal effect; tags tell the direction and shape of the fitted curve.

Oc1ccc2ccccc2c1SSc1c(O)ccc2ccccc12
Potency [1]: inconclusive: 43.2 µM [cytotoxic, single point]
Potency [2]: inconclusive: 20.9 µM [cytotoxic, single point]
Potency [3]: inconclusive: 37.2 µM [cytotoxic, single point]
Potency [4]: active: 23.5 µM
Potency [5]: inconclusive: 29.6 µM [cytotoxic, single point]
Potency [6]: inconclusive: 29.6 µM [cytotoxic, single point]

CC(=O)O[C@]1(C(C)=O)CC[C@H]2[C@@H]3C=C(C)C4=CC(=O)CC[C@]4(C)[C@@H]3CC[C@@]21C
Potency [1]: inconclusive: 38.5 µM [cytotoxic, single point]
Potency [2]: inconclusive: 5.9 µM [cytotoxic, partial curve, poor fit]
Potency [3]: inconclusive: 9.35 µM [cytotoxic, full curve]
Potency [4]: inconclusive: 9.35 µM [cytotoxic, single point]
Potency [6]: inconclusive: 7.43 µM [cytotoxic, full curve]

C[C@@H]1CCN(C(=O)CC#N)C[C@H]1N(C)c1ncnc2[nH]ccc12
Potency [1]: inconclusive: 21.7 µM [cytotoxic, partial curve]
Potency [2]: inactive
activity change, negative = cytotoxic [3]: inconclusive: -35.7% [cytotoxic]
Potency [4]: inactive
Potency [6]: inconclusive: 13.2 µM [cytotoxic, partial curve]

O=C1NC(=O)C(=Cc2ccc(-c3ccc(F)cc3)o2)S1
Potency [1]: inconclusive: 6.85 µM [cytotoxic, partial curve]
Potency [2]: inconclusive: 18.7 µM [cytotoxic, partial curve, poor fit]
Potency [3]: inconclusive: 23.5 µM [cytotoxic, single point]
Potency [5]: inconclusive: 5.9 µM [cytotoxic, partial curve]

C[C@H](NC(=O)c1sccc1OCc1ccc(Cl)cc1)c1ccccc1
Potency [1]: active: 12.2 µM
Potency [2]: active: 29.6 µM
Potency [3]: inconclusive: 37.2 µM [cytotoxic, single point]
Potency [5]: active: 18.7 µM

CCCCC1C(=O)N(c2ccccc2)N(c2ccc(O)cc2)C1=O (stereo not given)
Potency [1]: active: 11 µM
Potency [2]: active: 6.68 µM
Potency [5]: inconclusive: 10.6 µM [cytotoxic, partial curve]

CNCC[C@H](Oc1cccc2ccccc12)c1cccs1
Potency [1]: active: 15.5 µM and inconclusive: 27.3 µM [cytotoxic, single point]
Potency [2]: active: 26.6 µM and active: 4.69 µM
Potency [5]: inconclusive: 2.35 µM [cytotoxic, full curve]
Potency [6]: inconclusive: 11.9 µM [cytotoxic, single point] and inconclusive: 11.8 µM [cytotoxic, partial curve]

CS(=O)(=O)N(Cc1ccco1)CC(O)Cn1c2ccccc2c2ccccc21 (stereo not given)
Potency [1]: inconclusive: 15.3 µM [cytotoxic, partial curve]
Potency [2]: inconclusive: 18.7 µM [cytotoxic, single point]
Potency [4]: inactive
Potency [5]: inconclusive: 5.26 µM [cytotoxic, partial curve, poor fit]
Potency [6]: inconclusive: 14.8 µM [cytotoxic, partial curve]

c1ccc(CCNc2nc(-c3ccccc3)cs2)cc1
Potency [1]: inconclusive: 6.17 µM [cytotoxic, partial curve, poor fit]
Potency [2]: inconclusive: 16.8 µM [cytotoxic, partial curve]
Potency [6]: inactive

O=C(C=Cc1ccc(O)cc1)c1ccc(O)cc1O
Potency [1]: inconclusive: 30.6 µM [cytotoxic, partial curve, poor fit]
Potency [2]: inconclusive: 26.4 µM [cytotoxic, partial curve]
Potency [3]: inconclusive: 37.2 µM [cytotoxic, single point]
Potency [5]: inconclusive: 16.6 µM [cytotoxic, partial curve]
Potency [6]: inconclusive: 18.7 µM [cytotoxic, partial curve]

COC(=O)C1=C(C)NC(C)=C(C(=O)OCC(C)=O)C1c1ccccc1[N+](=O)[O-] (stereo not given)
Potency [1]: inconclusive: 19.5 µM [cytotoxic, single point]
Potency [2]: inconclusive: 23.7 µM [cytotoxic, partial curve]
Potency [3]: inconclusive: 26.6 µM [cytotoxic, partial curve]
Potency [4]: inconclusive: 26.6 µM [cytotoxic, single point]

C[C@](N)(Cc1ccc(O)cc1)C(=O)O
activity change, negative = cytotoxic [1]: inactive: -5.63% [at 6.18 µM]
Potency [2]: inconclusive: 0.422 µM [cytotoxic, full curve]
activity change, negative = cytotoxic [3]: inactive: -28.9% [at 4.84 µM]
activity change, negative = cytotoxic [5]: inactive: -4.89% [at 4.84 µM]
Potency [7]: inconclusive: 2.63 µM [cytotoxic, single point]
activity change, negative = cytotoxic [8]: inactive: 6.85% [at 5.01 µM]

Cc1oncc1C(=O)Nc1ccc(C(F)(F)F)cc1
Potency [1]: inconclusive: 5.5 µM [cytotoxic, partial curve] and inconclusive: 13.7 µM [cytotoxic, partial curve]
Potency [2]: inconclusive: 16.6 µM [cytotoxic, partial curve]
Potency [5]: inconclusive: 6.62 µM [cytotoxic, partial curve]
Potency [6]: inconclusive: 6.62 µM [cytotoxic, partial curve]
Potency [7]: inconclusive: 10.4 µM [cytotoxic, partial curve]

Oc1ccc(OCc2ccccc2)cc1
Potency [1]: inconclusive: 17.2 µM [cytotoxic, partial curve]
Potency [2]: inconclusive: 20.9 µM [cytotoxic, partial curve, poor fit]
Potency [5]: inconclusive: 18.7 µM [cytotoxic, partial curve, poor fit]
Potency [6]: inactive

O=C(CS)Nc1ccccc1
Potency [1]: inactive
Potency [2]: inconclusive: 18.8 µM [cytotoxic, partial curve, poor fit]
Potency [4]: active: 16.8 µM

O=C(O)CCC(=O)c1ccc(-c2ccccc2)cc1
Potency [1]: inactive
Potency [2]: inactive
Potency [5]: inactive

CCOc1ccc(Cc2cc([C@@H]3O[C@H](CO)[C@@H](O)[C@H](O)[C@@H]3O)ccc2Cl)cc1
Potency [1]: inconclusive: 43.2 µM [cytotoxic, single point]
Potency [2]: inconclusive: 41.8 µM [cytotoxic, single point]

O=[N+]([O-])c1ccc(Nc2ccccc2-c2ccccc2)c2nonc12
Potency [1]: inconclusive: 34.3 µM [cytotoxic, single point]
Potency [2]: inconclusive: 33.2 µM [cytotoxic, single point]
Potency [3]: inconclusive: 37.2 µM [cytotoxic, single point]
Potency [4]: inactive
Potency [6]: inconclusive: 2.96 µM [cytotoxic, partial curve]

CC[C@@H](C)[C@H](NC(=O)[C@H](CC1CCCCC1)NC(=O)c1ccno1)C(=O)N1CCC2(CCc3ccccc32)CC1
Potency [1]: active: 17.2 µM
Potency [2]: inconclusive: 3.72 µM [cytotoxic, partial curve, poor fit]
Potency [5]: inconclusive: 13.2 µM [cytotoxic, partial curve, poor fit]
Potency [6]: inconclusive: 14.8 µM [cytotoxic, partial curve]

CC(C=CC1=C(C)CCCC1(C)C)=CC=CC(C)=CC(=O)O
Potency [1]: inconclusive: 8.6 nM [cytotoxic, full curve] and active: 344 nM
Potency [2]: inconclusive: 37.2 µM [cytotoxic, single point] and inconclusive: 743 nM [cytotoxic, full curve]
Potency [3]: active: 9.35 µM and inconclusive: 23.5 µM [cytotoxic, partial curve, poor fit]
Potency [4]: inconclusive: 23.5 µM [cytotoxic, single point] and inconclusive: 16.6 µM [cytotoxic, partial curve, poor fit]
Potency [5]: inconclusive: 4.69 µM [cytotoxic, partial curve]
Potency [6]: inconclusive: 11.8 µM [cytotoxic, partial curve] and inconclusive: 5.9 µM [cytotoxic, partial curve]
Potency [7]: inactive
Potency [8]: inconclusive: 18.5 µM [cytotoxic, partial curve]

O=C(CCCN1CCC(O)(c2ccc(Cl)cc2)CC1)c1ccc(F)cc1
Potency [1]: inconclusive: 30.9 µM [cytotoxic, single point]
Potency [2]: inconclusive: 37.2 µM [cytotoxic, single point] and inconclusive: 29.9 µM [cytotoxic, single point]
activity change, negative = cytotoxic [3]: inconclusive: -35.3% [cytotoxic]
Potency [6]: inconclusive: 18.7 µM [cytotoxic, partial curve, poor fit]

COc1cccc(-c2ccc(NC(=O)C3=C(C(=O)O)CCC3)c(F)c2)c1
Potency [1]: inconclusive: 13.7 µM [cytotoxic, single point]
Potency [2]: inconclusive: 9.35 µM [cytotoxic, partial curve]
Potency [3]: inconclusive: 2.35 µM [cytotoxic, full curve]
Potency [6]: inconclusive: 7.43 µM [cytotoxic, partial curve]
Potency [9]: inconclusive: 20.8 µM [cytotoxic, partial curve]
Potency [7]: inconclusive: 4.65 µM [cytotoxic, full curve]

CN(C)c1ccc(Nc2nc(N)n(C(=O)c3c(F)cccc3F)n2)cc1
Potency [1]: inconclusive: 38.5 µM [cytotoxic, single point]
Potency [2]: inconclusive: 18.7 µM [cytotoxic, partial curve]
